From article PMC6919601, “Identification of Plasmodium dipeptidyl aminopeptidase allosteric inhibitors by high throughput screening” (PLoS ONE, 2019)
About 230 (0.21%) of roughly 110,000 compounds showed an effect of 50% or more. This is one part of the list.

Each compound was assayed against DPAP1 (Plasmodium falciparum, UniProt Q8IIJ9) (assay: primary screen, percent inhibition; read by cleavage of a fluorogenic dipeptide substrate; higher = more effect of the substance).
Design: species or system P. falciparum D10 trophozoite lysates; single well
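Also: 30 min substrate incubation versus DMSO and 10 µM JCP410 controls.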

DPAP1, sequence (Q8IIJ9 whole entry, looked up): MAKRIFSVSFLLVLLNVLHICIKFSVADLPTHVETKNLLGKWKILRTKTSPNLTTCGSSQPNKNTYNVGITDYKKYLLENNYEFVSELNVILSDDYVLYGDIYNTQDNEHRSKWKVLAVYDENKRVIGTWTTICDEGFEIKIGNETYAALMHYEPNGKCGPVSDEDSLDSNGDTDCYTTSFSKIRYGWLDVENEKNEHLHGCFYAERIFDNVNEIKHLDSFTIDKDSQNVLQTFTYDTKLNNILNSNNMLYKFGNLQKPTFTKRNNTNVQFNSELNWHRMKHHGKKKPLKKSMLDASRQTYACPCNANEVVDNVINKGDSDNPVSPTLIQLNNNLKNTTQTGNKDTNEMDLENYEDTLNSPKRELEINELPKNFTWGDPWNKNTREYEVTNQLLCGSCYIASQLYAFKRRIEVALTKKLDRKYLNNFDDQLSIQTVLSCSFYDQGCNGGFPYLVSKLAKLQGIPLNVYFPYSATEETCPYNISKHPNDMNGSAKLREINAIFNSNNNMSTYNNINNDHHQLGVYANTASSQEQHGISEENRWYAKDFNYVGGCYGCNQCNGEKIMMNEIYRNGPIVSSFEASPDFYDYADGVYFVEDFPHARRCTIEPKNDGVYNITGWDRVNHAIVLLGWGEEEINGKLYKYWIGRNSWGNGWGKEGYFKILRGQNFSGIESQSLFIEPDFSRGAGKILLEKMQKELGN

| Structure (SMILES) | % Inhibition @ 10 uM |
| --- | --- |
| CCOc1cccc(NC(=O)c2ccccc2Cl)c1 | 1.84% |
| OCCN1CCN(CC(O)COCC2COc3ccccc3O2)CC1 (stereo not shown) | -9.4% |
| CCOc1cc(CNCCc2cccc(F)c2)ccc1OC | 0.0504% |
| O=C(O)COc1ccc(/C=C2/NC(=O)NC2=O)cc1Br | -3.06% |
| CC(=O)c1c(C)n(-c2ccccc2)c2ccc(O)cc12 | 3.06% |
| O=C(CNC1CCCC1)Nc1nc(-c2ccc(Cl)cc2Cl)cs1 | 1.39% |
| O=C(O)CCC(=O)Nc1cccc(C(=O)Nc2cccc(Cl)c2)c1 | -7.27% |
| CC(=O)N(CCCN(C)C)c1nc2c(F)cccc2s1 | 1.51% |
| O=C(Nc1nnc(CCSc2ccc3ccccc3c2)s1)c1ccccc1 | 3.25% |
| CC(C)CN1C(=O)c2ccccc2C(C(=O)NCCCN2CCOCC2)C1c1cccs1 (stereo not shown) | -3.77% |
| CCCCN(Cc1ccccc1)C(=O)C1CCN(S(=O)(=O)c2c(C)noc2C)CC1 | -0.426% |
| O=C(CNS(=O)(=O)c1ccc(Br)s1)N1CCN(C(=O)c2ccco2)CC1 | -1.28% |
| O=C(CN1C(=O)C2CCCCC2C1=O)N1CCN(C(c2ccccc2)c2ccccc2)CC1 (stereo not shown) | -1.17% |
| O=C1CCC(=O)N1c1ccc2c(c1)oc1ccccc12 | -2.81% |
| O=C(Nc1ccccc1C(=O)NCc1cccnc1)c1ccc(Cl)cc1 | -6.16% |
| O=C(NCCN1CCCC1)c1cc2ccc3cccnc3c2[nH]1 | 8.23% |
| COc1cc(/C=C(\C#N)c2[nH]nc(N)c2C#N)ccc1OCc1ccccc1 | 2.7% |
| O=C(c1cc2c(s1)-c1ccccc1OC2)N1CCN(C2CCCCC2)CC1 | -1.37% |
| CCOc1ccc(N(CC(=O)Nc2ccc3c(c2)OCO3)S(C)(=O)=O)cc1 | -6.3% |
| O=c1c(-c2ccccc2)c(N2CCC(N3CCCCC3)CC2)c1=O | -1.4% |
| COc1ccc(OCC(=O)c2c(C)[nH]c3ccccc23)cc1 | -0.0372% |
| CC(C)(C)Nc1nc(Cl)nc(N2CCOCC2)n1 | -5.46% |
| O=C(Nc1cccc(C(=O)N2CCN(Cc3ccccc3)CC2)c1)c1ccccc1 | 2.37% |
| COc1ccc(CN2CCN(Cc3ccccc3C(F)(F)F)CC2)cc1OC | -8.86% |
| CCOC(=O)c1c(C)n(CCc2ccc(OC)c(OC)c2)c2ccc(OC)cc12 | 7.63% |

| Structure (SMILES) | % Inhibition @ 10 uM |
| --- | --- |
| CNc1nc(-c2ccccc2)cc(-c2ccccc2)n1 | 3.06% |
| COc1ccc(C2NC(c3ccc(OC)cc3)C(C)C(=O)C2C)cc1 (stereo not shown) | 7.57% |
| CCOC(=O)C1=C(N)OC2=C(C(=O)CCC2)C1c1ccc(CC)s1 (stereo not shown) | 0.685% |
| N#Cc1ccccc1CCN1C(=O)c2ccccc2C1=O | 2.02% |
| CCc1ccc(CNCc2c(C(=O)O)c(C)n(Cc3ccc(C)cc3)c2C)cc1 | 2.99% |
| COc1cc(SC)ccc1C(=O)Nc1ccc(Br)cc1C | -5.96% |
| Cc1oc(-c2ccc(C(=O)NCc3ccc4c(c3)OCO4)cc2)nc1CS(=O)(=O)c1ccccc1 | -3.84% |
| CC(=O)Nc1ccc(S(=O)(=O)Nc2c(C)nn(Cc3cccc4ccccc34)c2C)cc1 | 6.05% |
| NC(=O)C1CCN(C2CCN(CCc3ccccc3)CC2)CC1 | -1.81% |
| Cc1cc(C)n(C(C(=O)c2ccccc2)=C2SCCS2)n1 | 0.605% |
| O=C(NC1CCCc2ccccc21)c1cc2c(Cl)ccc3c2n1CCO3 (stereo not shown) | 0.453% |
| COc1ccc(CCNCc2c(C(=O)O)n(Cc3ccc(F)cc3Cl)c3ccccc23)c(OC)c1 | 3.54% |
| CCOC(=O)c1cnc2c(OC)cccc2c1NCC1COc2ccccc2O1 (stereo not shown) | 1.08% |
| COc1cccc(N2CCN(C3CC(=O)N(c4ccc(C)c(Cl)c4)C3=O)CC2)c1 (stereo not shown) | 4.82% |
| Cc1ccc(C(=O)Nc2ccccc2NC(=O)c2ccc(C)o2)o1 | 5.09% |
| COc1ccc(OC)c(C2=NOC(C(=O)NC(C)C)C2)c1 (stereo not shown) | -0.431% |
| CCOc1cc(/C=C2/NC(=O)NC2=O)cc(Cl)c1OC(C)C | 5.37% |
| CCOc1ccccc1C1C2=C(O)CC(C)(C)CC2=NC(C)=C1C(=O)OC (stereo not shown) | -0.999% |
| COc1cc(OC)cc(C(=O)N2CCN(CCCc3ccccc3)CC2)c1 | -3.37% |
| COc1ccccc1NC(=O)C1=C(C)N=C2CCCC(O)=C2C1c1ccc(Cl)cc1 (stereo not shown) | 0.343% |
| CC1CCCC(C)N1CCNC(=O)C1CCN(S(C)(=O)=O)CC1 (stereo not shown) | -4.97% |
| Cc1cccc(C)c1NC(=O)CN(c1ccc(F)cc1)S(C)(=O)=O | 3.66% |
| O=C1c2cccnc2C(=O)N1c1ccc(-c2nc3ccccc3s2)cc1 | 1.72% |
| CCOC(=O)C1CCCN(CCCc2ccccc2)C1 (stereo not shown) | -0.603% |
